{"source": "PubChem BioAssay AID463173", "about": "(ICCB-Longwood Screening Facility, Harvard Medical School, 2010)", "note": "The whole screen tested about 52,000 compounds, of which about 1,700 (3.3%) were called active. No stated cut-off is given here; in the data, active means survival mostly below about 52% (no sharp cut-off); inactive means mostly above about 56%. This is one part of the list.", "data": [{"system": "Wild type", "assay": "S. aureus survival, RN4220 and DeltatarO strains – OD600, teichoic acid synthesis inhibitors, primary screen (AID 463173)", "conditions": "S. aureus RN4220 wild type/DeltatarO growth, OD600, 18 h, stronger effect = lower value, screened at 18.75 µg/mL (by protocol)", "values": [{"molecule": "COc1ccc(NC(=O)[C@H](Cc2ccccc2)N2Cc3ccccc3C2=O)cc1OC", "survival": "inactive: 94%"}, {"molecule": "Cc1ccc(-n2ncc(C(=O)NCCN3CCN(C)CC3)c2C2CCN(C(=O)OC(C)(C)C)CC2)cc1C", "survival": "inactive: 84%"}, {"molecule": "COc1cccc(NC(=O)Cn2c(=O)n(Cc3ccc4c(c3)OCO4)c(=O)c3oc4ccccc4c32)c1", "survival": "inactive: 80%"}, {"molecule": "CC(=O)c1cccc(NS(=O)(=O)c2c(C(=O)N3CCCCCC3)c(C)n(C)c2C)c1", "survival": "inactive: 81%"}, {"molecule": "CCOc1ccc(CNC(=O)Cn2c(=O)c3cccn3c3cccnc32)cc1", "survival": "inactive: 89%"}, {"molecule": "COc1ccc2c(c1)c(N1CCCC1=O)c(C(=O)Nc1ccc(OC)c(Cl)c1)n2C", "survival": "inactive: 68%"}, {"molecule": "Cc1nn(-c2ccccc2)c2c1N(CCCC(=O)NC(C)c1ccccc1)C(=O)CS2", "note": "(stereo not drawn)", "survival": "inactive: 72%"}, {"molecule": "Cc1nn(-c2ccccc2)c2c1N(CC(=O)N1CCN(c3ccc(Cl)cc3)CC1)C(=O)CS2", "survival": "inactive: 72%"}, {"molecule": "CCc1ccc(NC(=O)c2cc(S(=O)(=O)NC3CCCCCC3)ccc2F)cc1", "survival": "inactive: 99%"}, {"molecule": "COc1cc(NC(=O)c2noc3c2CC(C)CC3)c(OC)cc1Cl", "note": "(stereo not drawn)", "survival": "inactive: 69%"}, {"molecule": "CCOC(=O)c1c(C)nc2c(c1C)c(=O)oc1ccccc12", "survival": "inactive: 102%"}, {"molecule": "O=C(NCCNC1CCCC1)c1ccco1", "survival": "inactive: 92%"}, {"molecule": "CCc1ccc(CNC(=O)CCn2nc(C)c3c(C)n(-c4ccccc4)nc3c2=O)cc1", "survival": "inactive: 65%"}, {"molecule": "Cc1ccc(S(=O)(=O)c2cn(Cc3ccccc3)c3cc(N4CCOCC4)c(F)cc3c2=O)cc1", "survival": "inactive: 68%"}, {"molecule": "Cc1nn(CCCC(=O)Nc2ccccc2C(F)(F)F)c(=O)c2nn(-c3ccccc3)c(C)c12", "survival": "inactive: 91%"}, {"molecule": "CC1CCC(NC(=O)c2ccc(CSc3nc4ccncc4n3Cc3ccc(F)cc3)cc2)CC1", "note": "(stereo not drawn)", "survival": "inactive: 81%"}, {"molecule": "COc1ccc(-n2c(SCCC(C)C)nc3sc4c(c3c2=O)CC(C(C)C)OC4)cc1", "note": "(stereo not drawn)", "survival": "inactive: 42%"}, {"molecule": "O=C(Nc1ccccc1)c1cccc(N2CCCS2(=O)=O)c1", "survival": "inactive: 126%"}, {"molecule": "Cc1cc(C)n2nc(CNC(=O)c3ccc(Cl)cc3)nc2n1", "survival": "inactive: 126%"}, {"molecule": "COc1ccc(C(CC(=O)Nc2ncccc2C)N2Cc3ccccc3C2=O)cc1OC", "note": "(stereo not drawn)", "survival": "inactive: 88%"}, {"molecule": "Cc1nn2c(-c3ccccc3)cc(-c3ccccc3)nc2c1-c1ccc(Cl)cc1", "survival": "inactive: 86%"}, {"molecule": "CC(=O)Nc1ccc2nc(NC(=O)c3cc4ccccc4o3)sc2c1", "survival": "inactive: 112%"}, {"molecule": "COc1cccc(-c2nc(CS(=O)(=O)CC(=O)N3CCN(c4ccccc4)CC3)c(C)o2)c1", "survival": "inactive: 94%"}, {"molecule": "O=C(Cn1c(=O)ccc2cc(S(=O)(=O)N3CCCC3)ccc21)Nc1ccccc1", "survival": "inactive: 65%"}, {"molecule": "Cc1ccc(Cl)cc1N1CCN(C(=O)c2ccc3c(Cl)c4c(nc3c2)CCCC4)CC1", "survival": "inactive: 29%"}, {"molecule": "COc1ccccc1CNC(=O)CCc1c(C)c2cc3c(C)coc3cc2oc1=O", "survival": "inactive: 72%"}, {"molecule": "CCn1ccc2c(OCC(=O)Nc3ccc(OC)cc3OC)cccc2c1=O", "survival": "active: -3%"}, {"molecule": "O=c1ccc(-c2ccccc2)nn1Cc1c(F)cccc1Cl", "survival": "inactive: 84%"}, {"molecule": "CCN1CCN(CCCNC(=O)Cn2c(-c3cccs3)cc3cc(Cl)ccc32)CC1", "survival": "inactive: 69%"}, {"molecule": "COc1ccc(-c2nc(CNC(=O)Nc3ccccc3)c(C)o2)c(OC)c1", "survival": "inactive: 72%"}, {"molecule": "CC1CCCCN1c1cc2c(cc1F)c(=O)c(S(=O)(=O)c1ccccc1)cn2Cc1ccccc1", "note": "(stereo not drawn)", "survival": "inactive: 136%"}, {"molecule": "O=C(Cn1c(-c2cccs2)cc2cc(F)ccc21)NCCc1ccc(Cl)cc1", "survival": "inactive: 109%"}, {"molecule": "O=S(=O)(Nc1ccc(O)c(Sc2nc3ccccc3s2)c1)c1cc(Cl)ccc1Cl", "survival": "active: 0%"}, {"molecule": "CCCCOc1ccc(CNC(=O)c2cnc3sc(N4CCCC4)nn3c2=O)cc1", "survival": "inactive: 126%"}, {"molecule": "Cc1c(Cl)cccc1NC(=O)C(=O)NCCc1csc2nc(-c3ccccc3F)nn12", "survival": "active: 1%"}, {"molecule": "CCn1cc(C(=O)NCCC(C)C)c(=O)c2cc(S(=O)(=O)N(C)C3CCCCC3)ccc21", "survival": "inactive: 82%"}, {"molecule": "CCC(=O)N1c2ccccc2CC1C(=O)NCCCN1CCN(c2ccc(OC)cc2)CC1", "note": "(stereo not drawn)", "survival": "inactive: 88%"}, {"molecule": "COc1ccccc1Nc1nc(C)nc(N)c1S(=O)(=O)c1ccccc1", "survival": "inactive: 80%"}, {"molecule": "Cc1nc2c3cccnc3nn2c(C)c1CCC(=O)NCc1ccccc1", "survival": "inactive: 123%"}, {"molecule": "CCN(CC)S(=O)(=O)c1ccc2c(c1)nc(CN(C)C(=O)Nc1ccc(C)c(Cl)c1)n2C", "survival": "inactive: 117%"}, {"molecule": "Cc1ccc(C)c(NC(=O)c2cc(S(=O)(=O)NCc3ccccc3)ccc2F)c1", "survival": "inactive: 70%"}, {"molecule": "Cc1ccc(OCC(=O)NCC2(N3CCN(C)CC3)CCCCC2)cc1", "survival": "inactive: 96%"}, {"molecule": "COc1ccc(Nc2ncc(C(=O)Nc3cccc(Cl)c3)c3ccccc23)cc1", "survival": "inactive: 72%"}, {"molecule": "CCc1ccc(NC(=O)C(=O)NCC(c2ccc3c(c2)OCO3)N2CCN(C)CC2)cc1", "note": "(stereo not drawn)", "survival": "inactive: 110%"}, {"molecule": "COc1ccc(CNC(=O)c2ccc(Cn3c(=O)c4cccn4c4cccnc43)cc2)c(OC)c1", "survival": "inactive: 82%"}, {"molecule": "Cc1ccc(O)c(NC(=O)c2cc(-c3ccc(F)cc3)no2)c1", "survival": "inactive: 87%"}, {"molecule": "COc1ccc(-n2nc3c(N4CCC(C(=O)N5CCC(C)CC5)CC4)nnc(C)c3c2C)cc1", "survival": "inactive: 65%"}, {"molecule": "Cc1oc(CC(C)C)c(CN2CCOCC2)c1C(=O)O", "survival": "inactive: 106%"}, {"molecule": "CC(C)CCNC(=O)c1cnc2sc(N3CCCCCC3)nn2c1=O", "survival": "inactive: 80%"}, {"molecule": "O=C(C1CCC1)N1CCCc2cc(S(=O)(=O)N3CCN(c4cccc(Cl)c4)CC3)ccc21", "survival": "inactive: 80%"}, {"molecule": "CCOc1ccc(-n2ccnc2SCC(=O)Nc2cc(C)ccc2C)cc1", "survival": "inactive: 74%"}, {"molecule": "CCOCc1cc(CN2CCN(c3cccc(C(F)(F)F)c3)CC2)c(O)c2ncccc12", "survival": "inactive: 83%"}, {"molecule": "COc1cccc(-n2c(SCc3cccc(C)c3)nc3c([nH]c4ccccc43)c2=O)c1", "survival": "inactive: 78%"}, {"molecule": "Cc1ccc(C)c(NC(=O)C(=O)NCCCN2CCOCC2)c1", "survival": "inactive: 78%"}, {"molecule": "CCOc1ccccc1NC(=O)COC(=O)CC(C)(C)CC1=NS(=O)(=O)c2ccccc2N1", "survival": "inactive: 63%"}, {"molecule": "Cc1onc(-c2ccccc2Cl)c1C(=O)Oc1ccc(Cl)cc1Cl", "survival": "inactive: 82%"}, {"molecule": "O=C(NCCCN1CCN(c2ccccc2)CC1)c1sc2ncccc2c1-n1cccc1", "survival": "inactive: 81%"}, {"molecule": "CCOc1ccc(CCNC(=O)c2cnc3c(-c4ccc(F)cc4)c(C)nn3c2C)cc1", "survival": "inactive: 85%"}, {"molecule": "Nc1ncc(S(=O)(=O)NCc2ccccc2)cn1", "survival": "inactive: 81%"}, {"molecule": "O=S(=O)(c1ccc2nsnc2c1)N1CCCCC1", "survival": "inactive: 102%"}, {"molecule": "COc1ccc(N(C(=O)c2ccccc2C)S(=O)(=O)c2ccc(Cl)cc2)cc1", "survival": "inactive: 127%"}, {"molecule": "CC1(C)CC(=O)C2=C(C1)OC(N)=C(C#N)C2c1cn(Cc2cccc(F)c2)c2ccccc12", "note": "(stereo not drawn)", "survival": "inactive: 112%"}, {"molecule": "CC(C)(C)C(=O)CNS(=O)(=O)c1ccc(S(=O)(=O)NC2CCCCC2)cc1", "survival": "inactive: 104%"}, {"molecule": "O=C(NCCc1nc2ccccc2n1Cc1ccccc1F)c1ccc(F)cc1", "survival": "inactive: 82%"}, {"molecule": "COc1ccc(C(=O)c2cn(Cc3ccccc3)c3ccccc3c2=O)cc1OC", "survival": "inactive: 92%"}, {"molecule": "CN1C(C(=O)Nc2cccc(O)c2)=CC(c2cccs2)=NS1(=O)=O", "survival": "inactive: 85%"}, {"molecule": "O=C(Nc1cc(Cl)cc(Cl)c1)c1cc(S(=O)(=O)NC2CCCC2)ccc1F", "survival": "inactive: 83%"}, {"molecule": "COc1ccc(CN2C3CCCC2CC(NC(=O)NC2CCCCC2)C3)cc1", "note": "(stereo not drawn)", "survival": "inactive: 101%"}, {"molecule": "Cc1c(Cl)cccc1NC(=O)CCS(=O)(=O)c1ccc2c(c1)CC(C)N2C(=O)C1CC1", "note": "(stereo not drawn)", "survival": "inactive: 85%"}, {"molecule": "COc1ccc(CN(C)c2ccc(-c3nc(-c4ccc(OC)c(OC)c4)no3)cc2[N+](=O)[O-])cc1", "survival": "inactive: 86%"}, {"molecule": "CCOc1ccc2nc(Cl)c(C3CC(c4ccc(C)cc4)=NN3C(=O)CCC(=O)O)cc2c1", "note": "(stereo not drawn)", "survival": "inactive: 79%"}, {"molecule": "Cc1cccc(N2CCN(C(=O)C3CCN(C(=O)c4cc5sccc5n4C)CC3)CC2C)c1", "note": "(stereo not drawn)", "survival": "inactive: 69%"}, {"molecule": "COc1cccc(-c2nnc(SCC(=O)N(C)C3CCCCC3)o2)c1", "survival": "inactive: 79%"}, {"molecule": "CCOc1ccccc1CNCc1c(C(=O)O)c(C)n(Cc2ccc(C)cc2)c1C", "survival": "inactive: 90%"}, {"molecule": "CN1CCc2nc3sc(C(=O)c4ccc(F)cc4)c(N)c3cc2C1", "survival": "inactive: 75%"}, {"molecule": "COc1cn(CC(=O)Nc2cc(C)cc(C)c2)c(CN2CCCCC2)cc1=O", "survival": "inactive: 65%"}, {"molecule": "CCC(C)S(=O)(=O)c1oc(-c2cccs2)nc1S(=O)(=O)c1ccccc1", "note": "(stereo not drawn)", "survival": "inactive: 16%"}, {"molecule": "CCOc1ccc(CCNC(=O)Cn2c(-c3cccs3)cc3ccccc32)cc1", "survival": "inactive: 58%"}, {"molecule": "CCOc1ccc(NC(=O)CN(Cc2ccccc2)S(=O)(=O)c2ccc3nc(C)sc3c2)cc1", "survival": "inactive: 79%"}, {"molecule": "CCCNC(=O)c1ccc(SC)cc1OC", "survival": "inactive: 113%"}, {"molecule": "CN1C(=O)c2cccc3c(S(=O)(=O)Nc4cccc(C(=O)O)c4)ccc1c23", "survival": "inactive: 77%"}, {"molecule": "Cc1ccc2c(c1)c1c(c(=O)n(Cc3ccccc3)c(=O)n1Cc1ccccc1F)n2C", "survival": "inactive: 73%"}, {"molecule": "CN(c1ccc(F)cc1)S(=O)(=O)N1CCCC(C(=O)NCc2ccccc2Cl)C1", "note": "(stereo not drawn)", "survival": "inactive: 92%"}, {"molecule": "CCN(CC)S(=O)(=O)c1ccc(OC)c(NC(=O)c2sc3ccccc3c2Cl)c1", "survival": "inactive: 92%"}, {"molecule": "CCOc1ccc(N2CC(NC(=O)c3ccc(Cl)cc3)CC2=O)cc1", "note": "(stereo not drawn)", "survival": "inactive: 45%"}, {"molecule": "Cc1cccc(NC(=O)c2oc3ccccc3c2NC(=O)c2cc(=O)c3ccccc3o2)c1", "survival": "inactive: 82%"}, {"molecule": "CCOC(=O)N1CCc2c(sc3c2c(=O)n(Cc2ccccc2)c(=O)n3CC(=O)Nc2ccc(F)cc2)C1", "survival": "inactive: 87%"}, {"molecule": "CNC(=O)CN1C(=O)COc2ccc(S(=O)(=O)N3CCCCCC3)cc21", "survival": "inactive: 69%"}]}]}
